In the supplement of paper PMC3334620:
Over roughly 33,000 sequences, “E-score (-0.5 to 0.5)” has its median near -0.043; the highest 2% begin near 0.37. This is one part of the list.

The sequences below were run against T1, Upc2 (UniProt Q12151) (assay: PBM E-score (8-mer binding enrichment) (E-score (-0.5 to 0.5)); higher = stronger / more preferred TF binding; most listed sequences are background and not binding sites). Details: protein concentration: 200 nM; construct: GST-full length.
T1 sequence: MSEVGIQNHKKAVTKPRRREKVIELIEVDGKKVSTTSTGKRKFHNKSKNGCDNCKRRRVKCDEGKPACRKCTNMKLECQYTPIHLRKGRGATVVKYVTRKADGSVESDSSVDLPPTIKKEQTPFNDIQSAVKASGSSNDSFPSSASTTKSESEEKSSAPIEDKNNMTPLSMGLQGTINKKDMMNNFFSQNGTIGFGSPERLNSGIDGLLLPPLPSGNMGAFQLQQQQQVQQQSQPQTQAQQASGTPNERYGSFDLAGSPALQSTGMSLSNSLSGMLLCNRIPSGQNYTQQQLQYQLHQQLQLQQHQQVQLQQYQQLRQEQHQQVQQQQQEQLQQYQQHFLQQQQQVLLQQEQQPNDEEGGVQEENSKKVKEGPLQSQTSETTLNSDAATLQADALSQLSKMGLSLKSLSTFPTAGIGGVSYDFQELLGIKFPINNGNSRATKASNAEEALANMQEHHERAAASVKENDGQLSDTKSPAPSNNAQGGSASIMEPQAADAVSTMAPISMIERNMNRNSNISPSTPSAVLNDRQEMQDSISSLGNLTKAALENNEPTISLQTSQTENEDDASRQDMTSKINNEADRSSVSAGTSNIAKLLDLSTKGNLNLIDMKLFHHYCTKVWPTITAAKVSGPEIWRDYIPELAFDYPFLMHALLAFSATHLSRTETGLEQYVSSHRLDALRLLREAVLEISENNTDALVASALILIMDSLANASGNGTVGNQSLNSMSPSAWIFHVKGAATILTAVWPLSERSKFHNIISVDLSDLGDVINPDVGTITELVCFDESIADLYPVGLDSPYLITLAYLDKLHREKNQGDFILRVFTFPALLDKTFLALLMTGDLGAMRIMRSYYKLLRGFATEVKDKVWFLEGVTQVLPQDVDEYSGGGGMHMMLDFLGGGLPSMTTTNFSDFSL
Summary of the method: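 Full-length yeast transcription factors or their DNA-binding domains, GST-tagged and expressed with PURExpress, were applied at about 100-200 nM to universal all-10-mer Agilent arrays. These arrays had been made double-stranded by primer extension on fresh or once-stripped slides. Detection used fluorescent anti-GST, normalisation used masliner, and E-scores for ungapped eight-base words pooled with reverse complements came from the Universal PBM Analysis Suite.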

Sequence | PBM E-score
AGGGGTAC | -0.00629
GTGACACA | -0.126
AGCTTGGC | -0.116
ACTCATTG | -0.0542
AGCACGCG | 0.0652
AGTAGATG | -0.108
CAGGCCAC | -0.223
AGCTCCGA | 0.0699
CGGGCCCG | 0.278
CCGCTAAG | 0.00215
CAGACGCG | -0.0848
ACTCATGG | -0.157
AGGGGCTG | -0.161
ATTTCTTC | -0.026
GCCTGTTA | -0.286
AGATGAAG | -0.127
GGCAACCA | -0.136
CCACCGCC | 0.0047
ATTTGGCA | 0.0539
GAGACTCA | -0.0394
CCATTGCA | -0.15
CCGTAGCC | 0.0482
ACTTACTG | -0.00843
CAATTGAC | -0.0549
CTCGAACA | -0.00626

Sequence | PBM E-score
ACCGACCG | 0.13
AGTTCTAC | -0.0317
CAGCTAAG | -0.332
CTGAAGTA | -0.122
ACAACGTG | -0.254
GGCTAGAC | -0.239
CGGCAACG | 0.215
CTGCTTAA | -0.241
CCAGTTAG | -0.237
CTGCCCAG | -0.192
CTGCAAAG | -0.125
GGGGAGCA | -0.175
AACCGGAG | -0.193
GCCGCCAC | -0.279
CGGTAATC | 0.0965
CTATCCTA | -0.129
ATGGTTAG | -0.2
CTCCACAC | -0.218
GCAAATCC | 0.0252
AGCATCCA | -0.303
AAGAGATC | 0.056
CATCTACG | 0.121
AGCCCCAC | -0.0315
AAACTCGC | 0.151
CCACTTAA | -0.0897

Sequence | PBM E-score
ACAGTTGC | -0.151
ATTTACCA | -0.0887
CCGCTTCC | -0.0802
AGGTGCTC | -0.169
TACCTCGA | 0.0842
CAGTAACG | 0.146
TCCCATAA | -0.219
AACACAGT | -0.0112
GGGCTGGA | -0.155
CGTTCAAG | 0.407
ACAGTGGC | -0.115
GCAGAGGA | -0.0662
AGGGAGTC | -0.257
AAGGTCGT | 0.31
AAAGCCTC | -0.0101
GGATACCA | -0.0879
GATACCGA | -0.00382
GAGAGTAC | 0.0133
CTACGGAA | 0.0194
AACTTGAC | -0.0301
CCCTGCAC | -0.0527
GCATTAGA | -0.139
GCGCCGAC | -0.25
AGTGGAGC | -0.124
ATAAATCA | -0.0114

Sequence | PBM E-score
TATGCCAA | -0.0761
CCGGTGAA | 0.0509
CGGAGCTA | 0.0735
AGGTGGCA | -0.207
CCCTTCAC | -0.185
GGTTCGTA | 0.445
CTGCCGTA | 0.336
GCACCATA | -0.0407
CTTTTGTC | -0.0899
TATCACAA | 0.00921
GGTCGAAA | -0.1
GACCCTAC | -0.202
AGGGCCTC | -0.225
CGCGGTAA | 0.168
AAGGCTGT | -0.146
GGTACTCA | -0.0959
ATAGCGAT | -0.0733
TAGAGCAA | -0.196
ATTCGAAG | 0.134
AGCTAAAA | 0.0318
ATGGCATG | 0.209
CATTTTAG | 0.0741
CGCTCCAC | 0.0566
ACAGCCTC | 0.00427
TCTTTACA | -0.04

Sequence | PBM E-score
AATGGTGT | -0.0602
ATATTTCC | -0.168
CCTGTCCC | 0.0617
TATGCCGA | 0.12
TGATCGAA | 0.0649
GTCGGCGA | -0.0348
CAGCTCAG | -0.184
AGGGCGGA | -0.225
ACCAAGTG | -0.196
AGGGACTC | 0.0301
CGTGTCCA | -0.194
AGAACCTG | -0.0415
ATGTCGTA | 0.45
GATTAAAC | 0.29
TAACGATA | 0.387
AAGTTCGA | 0.042
ATGCCTGC | -0.122
CTACGTAA | 0.191
ATGGAGGC | -0.106
CATACAGA | -0.079
TATGGCAA | -0.037
CCTATCTC | -0.0763
CTGGAGCA | -0.342
GACGGCTC | -0.105
AAATACCC | -0.0819

Sequence | PBM E-score
AAGCTTGT | -0.0904
GCCGTCAA | -0.0972
CGAGCTTA | 0.0276
CCTGATCC | -0.0689
AGCGACAA | 0.143
AAGGTTTG | 0.0347
CTTCTGCC | 0.019
GTTTGGCA | 0.21
GCTCGGCC | -0.164
GCAAAGCA | -0.0565
CTATCGAC | -0.0386
ACAGTACT | 0.0578
CTCCCGTC | 0.141
AGGGCTCA | -0.278
AATCGGGA | -0.12
ACAAATTC | -0.0428
CAATCGGC | -0.289
CCAAGCTC | 0.0545
CACAATAA | 0.081
CAGTATTC | 0.162
GCCAAACA | -0.0676
TGTGCCAA | -0.0795
CCTGACAG | -0.256
GCCGCACC | -0.0621
CTGTACGC | 0.375

Sequence | PBM E-score
GCCGAAAA | 0.0611
AGTCAACT | -0.068
CTAGTGCA | 0.00311
CCAGCAGA | -0.328
CTGCAAGC | -0.188
CATCGGAG | -0.244
CTGATCAA | -0.25
AATCTAGG | -0.0686
ACAGTGTG | -0.0237
AGCGTGTA | 0.151
CCAAAAGG | -0.318
GTTGATCA | -0.0283
GAATAGAC | -0.15
GTGGGTGA | -0.117
ACTGATGA | -0.0579
GAAACCGA | 0.117
CCTCAATC | -0.0762
ACATAATA | 0.0823
CACGGGGG | -0.0826
TGACCTCA | -0.173
CTTGGCAA | -0.0704
CAATGCTG | -0.181
